# Measured values published in a collection of fitness landscapes (doi:10.1016/j.celrep.2020.107928).
# In all, about 81,000 sequences were measured (“one-hybrid fitness for binding NBS DNA”: median about -0.1, highest 2% from about 0.36 on). The list shows a part of the results.
# B1: Caulobacter ParB omega fusion; a variant is named by its letters at X, in order, B8GW30 (parent)
# chain: MESVVVGEPGMSEGRRGLGRGLSALLGEVDAAPAQAPGEQLGGSREAPIEILQRNPDQPRRTFREEDLEDLSNSIREKGVLQPILVRPSPDTAGEYQIVAGERAWRAAQRAGLKTVPIMVRELDDLAVLEIGIIENVQRADLNVLEEALSYKVLMEKFERTQENIAQTIGKSXSHVANXMRLLXLPDEVQSYLVSGELTAXHARAIAAAADPVALAKQIIEGGLSVRETEALARKAPNLSAGKSKGGRPPRVKDTDTQALESDLSSVLGLDVSIDHRGSTGTLTITYATLEQLDDLCNRLTRGI
# Variants of: B1
# Assay: one-hybrid fitness for binding NBS DNA (the Noc-binding site; scaled: cognate 1, non-cognate 0); higher = stronger binding
# Details: with NBS DNA site
# Method in brief: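 Caulobacter ParB libraries with four specificity codons randomised were screened by bacterial one-hybrid selection in the E. coli USO strain, using a HIS3 reporter whose site lies 19 bp from the promoter. Selection ran for 48 hours at 37°C on M9 lacking histidine, with 0.1 mM IPTG and 5 mM 3-AT. Plasmids were Illumina-sequenced before and after selection, three replicate libraries were pooled, and variants with under 10 reads were dropped. Fitness is the log change in each variant's read ratio to wild type, rescaled against the cognate and non-cognate sites.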
row,Variant,one-hybrid fitness for binding NBS DNA
1,AAPK,≤ 0.2
2,VCRY,≤ 0.2
3,HIYP,≤ 0.2
4,GCAS,≤ 0.2
5,GATM,≤ 0.2
6,RILC,≤ 0.2
7,GLSV,≤ 0.2
8,NFRG,≤ 0.2
9,AEST,≤ 0.2
10,GPPE,≤ 0.2
11,FWKN,≤ 0.2
12,TVVT,≤ 0.2
13,QSDW,≤ 0.2
14,DVQR,≤ 0.2
15,SWMA,≤ 0.2
16,PVPN,≤ 0.2
17,RRYS,0.661
18,LTHF,≤ 0.2
19,SGSY,≤ 0.2
20,GVYS,≤ 0.2
21,GANA,≤ 0.2
22,LTNN,≤ 0.2
23,AKPQ,≤ 0.2
24,DTCE,≤ 0.2
25,QNWR,≤ 0.2
26,SPGP,≤ 0.2

row,Variant,one-hybrid fitness for binding NBS DNA
1,ICPG,≤ 0.2
2,PMTG,≤ 0.2
3,FPQG,≤ 0.2
4,DQTV,≤ 0.2
5,FCYP,≤ 0.2
6,VIDT,≤ 0.2
7,NAAS,≤ 0.2
8,SRSD,≤ 0.2
9,ANLC,≤ 0.2
10,MLNS,≤ 0.2
11,HKWG,≤ 0.2
12,RIER,≤ 0.2
13,VYVR,≤ 0.2
14,LKNM,≤ 0.2
15,CCKC,≤ 0.2
16,RFNI,≤ 0.2
17,QFNL,≤ 0.2
18,KFHR,≤ 0.2
19,NTQC,≤ 0.2
20,HESS,≤ 0.2
21,RSAE,≤ 0.2
22,PSMR,≤ 0.2
23,VVVW,≤ 0.2
24,FMFS,≤ 0.2
25,SFSY,≤ 0.2
26,QDKD,≤ 0.2

row,Variant,one-hybrid fitness for binding NBS DNA
1,LNDT,≤ 0.2
2,RQAK,≤ 0.2
3,PAKY,≤ 0.2
4,SRAE,≤ 0.2
5,DLRG,≤ 0.2
6,PKCT,≤ 0.2
7,FDNN,≤ 0.2
8,GDYS,≤ 0.2
9,RFII,≤ 0.2
10,VGGR,≤ 0.2
11,DSVF,≤ 0.2
12,IRQG,≤ 0.2
13,LNVL,≤ 0.2
14,NVWR,≤ 0.2
15,RNSC,≤ 0.2
16,RHHA,≤ 0.2
17,MGAV,≤ 0.2
18,RQTH,≤ 0.2
19,RVFP,≤ 0.2
20,VYIG,≤ 0.2
21,QMKK,0.436
22,ATDC,≤ 0.2
23,RENM,≤ 0.2
24,TYSC,≤ 0.2
25,FEQR,≤ 0.2
26,MKKG,≤ 0.2

row,Variant,one-hybrid fitness for binding NBS DNA
1,ATLT,≤ 0.2
2,FTIS,≤ 0.2
3,PVLS,≤ 0.2
4,RSDP,≤ 0.2
5,RHYH,≤ 0.2
6,REST,≤ 0.2
7,FNRD,≤ 0.2
8,PHLL,≤ 0.2
9,CSGY,≤ 0.2
10,EFHL,≤ 0.2
11,YSRC,≤ 0.2
12,CSPR,≤ 0.2
13,WYEY,≤ 0.2
14,LRII,≤ 0.2
15,ILRA,≤ 0.2
16,CQSS,≤ 0.2
17,QVNT,0.44
18,QCLW,≤ 0.2
19,NNGN,≤ 0.2
20,SPAK,≤ 0.2
21,ILWW,≤ 0.2
22,QWLA,≤ 0.2
23,GDVI,≤ 0.2
24,KVYC,≤ 0.2
25,AFQG,≤ 0.2
26,PASI,≤ 0.2

row,Variant,one-hybrid fitness for binding NBS DNA
1,RKQD,≤ 0.2
2,ESIY,≤ 0.2
3,DGHT,≤ 0.2
4,WNVG,≤ 0.2
5,PDQL,≤ 0.2
6,SNNT,≤ 0.2
7,FRRL,≤ 0.2
8,DTPS,≤ 0.2
9,PLSL,≤ 0.2
10,HLFR,≤ 0.2
11,CAPI,≤ 0.2
12,TNYQ,≤ 0.2
13,QKCD,≤ 0.2
14,TFSA,≤ 0.2
15,GADG,≤ 0.2
16,ARWT,≤ 0.2
17,WGKS,≤ 0.2
18,VTMR,≤ 0.2
19,LALD,≤ 0.2
20,LPWS,≤ 0.2
21,IMPV,≤ 0.2
22,HCMC,≤ 0.2
23,PRAI,≤ 0.2
24,PRKH,≤ 0.2
25,GGAC,≤ 0.2
26,NYPR,≤ 0.2

row,Variant,one-hybrid fitness for binding NBS DNA
1,CHTK,≤ 0.2
2,TARF,≤ 0.2
3,ATHG,≤ 0.2
4,SYQV,≤ 0.2
5,DSQS,≤ 0.2
6,LSTF,≤ 0.2
7,TVSF,≤ 0.2
8,TCTV,≤ 0.2
9,CQSA,≤ 0.2
10,NCKD,≤ 0.2
11,HQRM,≤ 0.2
12,HESG,≤ 0.2
13,ERTR,≤ 0.2
14,RVMK,≤ 0.2
15,NTHG,≤ 0.2
16,NCPR,≤ 0.2
17,PWDY,≤ 0.2
18,STAN,≤ 0.2
19,LAPD,≤ 0.2
20,RIMG,≤ 0.2
21,CLVT,≤ 0.2
22,LPQA,≤ 0.2
23,YKLC,≤ 0.2
